Measurements as given in PubChem BioAssay AID1645882 (National Center for Advancing Translational Sciences (NCATS), 2021).
“And” between values parts separate entries of the source, which are not always exact repeats. Equal values may be shown once. In all, about 16,000 compounds went through this assay and about 120 (0.75%) were called active. Another 4% or so got no clear call; they are omitted. Calls follow the shape of the dose curve; as a rule, active = well fitted inhibition curve with a large enough effect; inconclusive = small, poorly fitted or top-dose-only effect; inactive = no such curve, though single readings can be large or run the other way. This is one part of the list. Where a structure was tested more than once in an assay, its records may differ in their call. Where a SMILES comes first, the peptide text is derived from it.

Each compound was assayed against Rap guanine nucleotide exchange factor 3 (Homo sapiens) (UniProt O95398) (assay: Validation qHTS for antagonist of cAMP-regulated guanine nucleotide exchange factor 3 (EPAC1)). Conditions: EPAC1 Rap1B-BODIPY-GDP exchange, fluorescence; series mostly up to 150 µM; activity change, negative = inhibition: at the top concentration.
Outline: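 Nucleotide exchange followed as fluorescence loss when BODIPY-GDP leaves Rap1B (480 nm excitation, 540 nm emission), read at 5 min intervals over 30 min. Reaction: 100 nM EPAC1, 250 nM RAP1B-BODIPY-GDP, 50 uM GDP; ATA and DMSO define normalization.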
Also: nearly all actives have a fitted effect of over 75% in size.
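For activity change, negative = inhibition in this document: plate controls were DMSO for no effect and ATA control for full effect.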
Potency is read from the fitted curve at half-maximal effect.

Chain of UniProt O95398 (O95398 whole entry, looked up): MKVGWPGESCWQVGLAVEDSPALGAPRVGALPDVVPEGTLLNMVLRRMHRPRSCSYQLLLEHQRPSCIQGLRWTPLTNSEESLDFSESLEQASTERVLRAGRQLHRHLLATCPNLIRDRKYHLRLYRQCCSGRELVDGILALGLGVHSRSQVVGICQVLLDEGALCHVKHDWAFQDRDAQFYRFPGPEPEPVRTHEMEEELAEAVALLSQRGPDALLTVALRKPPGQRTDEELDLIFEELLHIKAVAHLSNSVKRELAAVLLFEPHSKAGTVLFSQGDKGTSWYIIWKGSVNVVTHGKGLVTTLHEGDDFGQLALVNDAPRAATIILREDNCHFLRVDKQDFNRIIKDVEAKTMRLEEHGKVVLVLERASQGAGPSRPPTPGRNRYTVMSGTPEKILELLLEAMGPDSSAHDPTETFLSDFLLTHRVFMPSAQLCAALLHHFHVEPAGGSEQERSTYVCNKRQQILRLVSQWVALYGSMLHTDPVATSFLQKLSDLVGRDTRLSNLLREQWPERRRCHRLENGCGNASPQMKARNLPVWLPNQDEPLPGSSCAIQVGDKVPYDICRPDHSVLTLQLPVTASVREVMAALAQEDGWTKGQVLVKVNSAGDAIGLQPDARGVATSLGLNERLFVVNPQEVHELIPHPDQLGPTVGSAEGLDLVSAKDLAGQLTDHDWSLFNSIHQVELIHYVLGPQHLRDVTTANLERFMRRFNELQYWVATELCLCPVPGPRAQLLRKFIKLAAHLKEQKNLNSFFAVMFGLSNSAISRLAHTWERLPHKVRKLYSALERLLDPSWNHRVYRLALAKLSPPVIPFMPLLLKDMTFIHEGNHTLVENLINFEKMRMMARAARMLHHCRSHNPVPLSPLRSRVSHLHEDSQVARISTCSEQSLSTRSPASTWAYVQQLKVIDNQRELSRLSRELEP

Row | Structure (SMILES) | activity change, negative = inhibition | Potency
1 | c1cn(-c2ccnc(-c3ccc4c(c3)OCO4)n2)cn1 | inactive: 10.4% | –
2 | N#Cc1ccc(CN2CC[C@@]3(CCCN(C(=O)c4ccco4)C3)C2)cc1 | inactive: 19.4% | –
3 | O=C1NC(=O)[C@H]2[C@@H]1[C@@H]1C=C[C@H]2C1 | inactive: -2.08% | –
4 | Cc1cnc(CNc2ccnc(-c3ccccc3Cl)n2)cn1 | inactive: 15.7% | –
5 | CS(=O)(=O)c1ccc(-c2ccc3c(c2)CC(CNC(=O)C2(N4CCOCC4)CCCCC2)O3)cc1 (stereo unspecified) | inactive: 2.55% | –
6 | Cc1cc(-c2ccnc(-n3ncc(C(=O)NCCc4ccncc4)c3C)n2)c(C)s1 | inactive: 8.7% | –
7 | CN(C)c1ncc2nc(-c3ccccc3)c(=O)n(Cc3ccc(F)cc3)c2n1 | inactive: 11.2% | –
8 | CCNc1ncc2nc(-c3ccc(OC)cc3)c(=O)n(C[C@H]3CCCO3)c2n1 | inactive: 8.19% | –
9 | Cc1cc(C)cc(C(=O)C[n+]2cccc(Br)c2)c1 | inactive: -15% | –
10 | O=C(c1cnccn1)N1CCC2(CCCN(c3ccncc3)C2)CC1 | inactive: 30.6% | –
11 | COc1ccc2c(c1OC)C(Cc1ccccc1)N1CCc3cc4c(cc3C1=C2)OCO4 (stereo unspecified) | inactive: -4.66% | –
12 | COc1ccc(-c2cc(=O)c3ccccc3o2)cc1 | inactive: -1.54% | –
13 | COc1ccc(-n2c(=O)c(-c3ccccc3)nc3cnc(N4CCNCC4)nc32)cc1 | inactive: 19.3% | –
14 | CCOC(=O)C1=C(C)NC(C)=C(C(=O)OC)[C@H]1c1cccc([N+](=O)[O-])c1 | inactive: -14.1% | –
15 | CN1CCN(c2ncc3nc(-c4cccs4)c(=O)n(C[C@H]4CCCO4)c3n2)CC1 | inactive: 6.6% | –
16 | O=S1(=O)CCOC[C@H](CC2CCCCC2)N1Cc1ccc(Cl)cc1 | inactive: -3.6% | –
17 | O=c1c(-c2cccs2)nc2cncnc2n1Cc1ccc(F)cc1 | inactive: 3.72% | –
18 | COc1ccc2c(=O)c(OC)c(-c3ccccc3)oc2c1 | inactive: -14.2% | –
19 | CCCCCCCCCCCCC/C=C/[C@@H](O)[C@H](CO)NC(=O)CCCCCCC | inactive: -20.2% [at 15.3 µM] | –
20 | C=CCN1C[C@H](C(=O)N(CCCN(C)C)C(=O)NCC)C[C@@H]2c3cccc4[nH]cc(c34)C[C@H]21 | inactive: 11.4% | –
21 | FC(F)(F)c1ccccc1-c1cc(NCc2cccs2)ncn1 | inactive: -11.2% | –
22 | CN1CCC(=C2c3ccccc3C=Cc3ccccc32)CC1 | inactive | –
23 | COCC(=O)N1CCC[C@@]2(CCN(C(c3ccccc3)c3ccccc3)C2)C1 | inactive: 5.13% | –
24 | NCC(O)C1CCCCCCC1 (stereo unspecified) | inactive: 2.64% [at 75.8 µM] | –

Row | Structure (SMILES) | activity change, negative = inhibition | Potency
25 | CC(C)c1c(C(=O)N2CCN(CCO)CC2)cnn1-c1nccc(-c2cccs2)n1 | inactive: 12.6% | –
26 | Cc1noc(C)c1C(=O)N1CCC[C@@]2(CCN(Cc3cc(C(F)(F)F)cc(C(F)(F)F)c3)C2)C1 | inactive: -18.9% | –
27 | C=C[C@@H](C)N(Cc1ccc(OC)cc1)S(=O)(=O)N(Cc1ccccc1)[C@H](C=C)C(C)C | inactive: 4.35% | –
28 | CC1OC(OC2C(CO)OC(OC3C(CO)OC(O)C(O)C3O)C(O)C2O)C(O)C(O)C1NC1C=C(CO)C(O)C(O)C1O (stereo unspecified) | inactive: 6.87% | –
29 | COc1ccc2[nH]cc(CCNc3ncnc4ccc(-c5ccccc5OC)cc34)c2c1 | inactive: -19% | –
30 | COc1cccc(-c2nc(NCCNC(C)=O)c3ccccc3n2)c1 | inactive: 2.04% | –
31 | COc1ccccc1CNc1ncnc2ccc(-c3cccc(NS(C)(=O)=O)c3)cc12 | inactive: -5.16% | –
32 | Oc1ccc(/C=C\c2cc(O)cc(O)c2)cc1 | inactive: 6.5% | –
33 | COc1ccc(CN(C)CCn2cc(C(=O)N3CCSCC3)nn2)cc1C | inactive: 3.76% | –
34 | c1cncc(-c2cc(-n3ccnc3)ncn2)c1 | inactive: -24.6% | –
35 | CNC1CCCN(c2c(F)cc3c(=O)c(C(=O)O)cn(C4CC4)c3c2OC)C1 (stereo unspecified) | inactive: 14.2% | –
36 | CC(=O)c1ccc(C(=O)N2CCc3c(cnc(C)c3CNC(=O)c3ccc4c(c3)OCO4)C2)s1 | inactive: -5.6% | –
37 | CC(CN(C)C)CN1c2ccccc2S(=O)(=O)c2ccccc21 (stereo unspecified) | inactive: 32.1% | –
38 | CC(C)CN1CCC(=O)N([C@H](COc2ccccc2)Cc2ccccc2)CC1 | inactive: -8.63% | –
39 | COc1ccccc1-c1nc(NCc2cnc(C)cn2)c2ccccc2n1 | inactive: 12.3% | –
40 | COC(=O)CC1C(C)(C)C(OC(C)=O)C2CC3=C4CC(=O)OC(c5ccoc5)[C@]4(C)CCC3[C@@]1(C)C2=O (stereo partly specified) | inactive: -3.44% | –
41 | CS(=O)(=O)Nc1cccc(-c2ccc3ncnc(Nc4ccc(F)cc4)c3c2)c1 | inactive: 10.5% | –
42 | COc1ccccc1-c1nc(NCc2cccs2)c2ccccc2n1 | inactive: -2.85% | –
43 | CC(=O)[C@H]1CCC2C3CC=C4C[C@@H](OS(=O)(=O)O)CC[C@]4(C)C3CC[C@@]21C (stereo partly specified) | inactive: 41.8% [at 75.8 µM] | –
44 | O=C1C[C@@H]2c3c(cccc3CN1Cc1ccccc1Br)C[C@@H](O)[C@H]2O | inactive: 13.4% | –
45 | COc1ccc(-c2nc3cnc(N4CCOCC4)nc3n(-c3ccccc3)c2=O)cc1 | inactive: 9.06% | –
46 | CC(C)(C=O)Cc1cc(C(C)(C)C)c(O)c(C(C)(C)C)c1 | inactive | –
47 | CN(C)c1ccc(/C=C/c2ccnc3ccc(F)cc23)cc1 | inactive: 17.4% | –
48 | COC(=O)c1c(OCC2CCCN(C)C2)cc(=O)n2c1CCN(Cc1ccc(OC)c(O)c1)CC2 (stereo unspecified) | inactive: 8.72% | –

Row | Structure (SMILES) | activity change, negative = inhibition | Potency
49 | CC(C)(CO)[C@@H](O)C(=O)NCCC(=O)NCCSSCCNC(=O)CCNC(=O)[C@H](O)C(C)(C)CO | inactive: 10.3% | –
50 | O=C(Nc1cccc(F)c1)N1CC2(CCN(C(=O)c3cnccn3)CC2)C1 | inactive: 9.42% | –
51 | O=C(NC[C@@H]1CCCN2CCCC[C@H]12)c1cnn(-c2nccc(-c3cc4ccccc4o3)n2)c1C1CC1 | inactive: 7.24% | –
52 | COC1=C[C@@H](C)C2CC3OC(=O)C[C@H]4C(C)=C(OC)C(=O)C([C@@]2(C)C1=O)[C@@]34C (stereo partly specified) | inactive: 5.09% | –
53 | CO[C@H]1C=CO[C@@]2(C)Oc3c(C)c(O)c4c(O)c(c5c(c4c3C2=O)=NC2(CCN(CC(C)C)CC2)N=5)NC(=O)/C(C)=C\C=C/[C@H](C)[C@H](O)[C@@H](C)[C@@H](O)[C@@H](C)[C@H](OC(C)=O)[C@@H]1C | inactive: -7.39% | –
54 | O=C(c1cnccn1)N1CCC2(CC1)CN(c1ccccn1)C2 | inactive: 23% | –
55 | COc1cccc(C(=O)O[C@H]2[C@H](C)NS(=O)(=O)[C@H]3C[C@@H]4C=C[C@]23O4)c1 | inactive: -4.22% | –
56 | NNCCc1ccccc1 | inactive | –
57 | O=C(Oc1ccccc1)N1CCC[C@@]2(CCN(c3ncccn3)C2)C1 | inactive: 17.1% | –
58 | CC(C)(C)c1ccc(S(=O)(=O)N[C@H]2CC[C@@H](n3cc(C(=O)N4CCCC4)nn3)CC2)cc1 | inactive: 7.47% | –
59 | CCCCCCCCCCCCCCCC(=O)OC(C)C | inactive: 18.4% | –
60 | O=C1C[C@@H]2c3c(cccc3CN1Cc1ccc(F)cc1)C[C@@H](O)[C@H]2O | inactive: 2.35% | –
61 | CCNC(=O)NCCCOc1cccc(CN2CCCCC2)c1 | inactive: 5.35% | –
62 | COc1ccc(-c2ccc(N)[n+](CCCC(=O)O)n2)cc1 | inactive: -4.17% [at 75.8 µM] | –
63 | CN1CCN(c2ncc3nc(-c4cccc(C#N)c4)c(=O)n(CCC#N)c3n2)CC1 | inactive: 15.6% | –
64 | NC1(C(=O)O)CCCCC1 | inactive: 16.8% [at 75.8 µM] | –
65 | COC(=O)C[C@H]1c2cc(C(F)(F)F)ccc2S(=O)(=O)N1c1ccc(N(C)C)cc1 | inactive: 6.39% | –
66 | CC(=O)C1(C)CC2(CC(C)(C)OC2=O)C(=O)O1 (stereo unspecified) | inactive: -4.18% | –
67 | COc1ccccc1CNc1ncncc1-c1ccc(N(C)C)cc1 | inactive: 1.52% | –
68 | COc1ccccc1-c1ccc2ncnc(NCc3cccnc3)c2c1 | inactive: 27.6% | –
69 | O=c1c(-c2cccs2)nc2cnc(N3CCNCC3)nc2n1-c1ccccc1 | inactive: 47.3% | –
70 | CC(Cc1cccc(C(F)(F)F)c1)NCCOC(=O)c1ccccc1 (stereo unspecified) | inactive: -15.6% | –
71 | Cc1cc(C(=O)O)ccc1[C@H](N)C(=O)O | inactive: 3.69% | –
72 | COc1cccc(Cn2c(=O)c(-c3ccccc3)nc3cnc(OC)nc32)c1 | inactive: 2.54% | –

Row | Structure (SMILES) | activity change, negative = inhibition | Potency
73 | O=C(/C=C/c1ccc(O)c(O)c1)OC(Cc1ccc(O)c(O)c1)C(=O)O (stereo unspecified) | – | inactive and active: 100 µM
74 | CCCCC/C=C\C/C=C\C/C=C\C/C=C\CCCCCC(=O)O | inactive: -11% [at 15.3 µM] | –
75 | COCCn1c(=O)c(-c2ccc(OC)cc2)nc2cnc(Oc3ccc(OC)cc3)nc21 | inactive: 3.42% | –
76 | Cc1ccc2c(c1)CN(CCNC(=O)c1n[nH]c3c1CCCC3)CC(C)O2 (stereo unspecified) | inactive: -1.47% | –
77 | CC(=O)S[C@@H]1CC2=CC(=O)CC[C@]2(C)[C@H]2CC[C@@]3(C)[C@@H](CC[C@@]34CCC(=O)O4)[C@H]12 | inactive: 38% | –
78 | CSc1nccc(-c2cc(Cl)c3c(c2)CC(CNC(=O)c2ccc(C)nc2)O3)n1 (stereo unspecified) | inactive: 11.4% | –
79 | CN(C)c1ccc(-c2cncnc2NCCc2cnc[nH]2)cc1 | inactive: 10.4% | –
80 | COc1ccc(Oc2ncc3nc(-c4ccccc4)c(=O)n(C4CC4)c3n2)cc1 | inactive: 4.43% | –
81 | COc1cccc(OC)c1OCCNC[C@@H]1COc2ccccc2O1 | inactive: 8.55% | –
82 | Cc1ccc(C)c(CN2CCc3nnc(CNC(=O)c4cc(C)oc4C)n3CC2)c1 | inactive: 6.74% | –
83 | O=c1c(-c2ccc(Cl)cc2)nc2cncnc2n1Cc1ccccc1 | inactive: 2.5% | –
84 | COc1cc(/C=C/C(=O)O[C@H]2CC[C@]34C[C@]35CC[C@]3(C)[C@@H]([C@H](C)CCC=C(C)C)CC[C@@]3(C)[C@@H]5CC[C@H]4C2(C)C)ccc1O | inactive | –
85 | COc1cccc(C2(CC(=O)N3CCN(c4nonc4C)CC3)CC(=O)N(C3CCCC3)C2=O)c1 (stereo unspecified) | inactive: 8.55% | –
86 | CC(=O)NCCNc1ncnc2ccc(-c3ccc(C(=O)N(C)C)cc3)cc12 | inactive: 26% | –
87 | CC(NC(=O)c1cc(F)ccc1F)c1nnc2n1CCN(Cc1cccs1)CC2 (stereo unspecified) | inactive: 15.3% | –
88 | CCCc1cc(C(N)=S)ccn1 | inactive: 20.5% | –
89 | COc1ccccc1-c1oc2ccccc2c(=O)c1OC | inactive: 4.17% | –
90 | FC(F)(F)c1ccccc1-c1ccc2ncnc(NC3CC3)c2c1 | inactive: 2.34% | –
91 | Cc1ncc(C[n+]2csc(CCO)c2C)c(N)n1 | inactive: 13.3% [at 75.8 µM] | –
92 | CC(C)c1c(C(=O)Nc2ccccc2)c(-c2ccccc2)c(-c2ccc(F)cc2)n1CC[C@@H](O)C[C@@H](O)CC(=O)O | inactive: 19.1% | –
93 | Cn1cccc1C(=O)N1CCC[C@@]2(CCN(c3ccncc3)C2)C1 | inactive: 12.6% | –
94 | O=C1c2ccccc2C(=O)C1c1ccc(F)cc1 | inactive: -3.07% | –
95 | CC(=O)NC(CC(=O)O)C(=O)NC(CCC(=O)O)C(=O)O (stereo not drawn) (Ac-Asp-Glu-OH; configuration not given here) | inactive: 10.2% | –
96 | O=C(c1ccncc1)N1CCC2(CCCN(C(c3ccccc3)c3ccccc3)C2)CC1 | inactive: -2.18% | –
